In PubChem BioAssay AID485297 (National Center for Advancing Translational Sciences (NCATS), 2010):
Among all 320,000 compounds or so, about 9,100 (2.8%) were called active. The shares of active, inactive and inconclusive entries below differ from those in the screen. Calls come from the whole dose curve; as a rule, active = well fitted activation curve with a large enough effect; inconclusive = small, poorly fitted or top-dose-only effect; inactive = no such curve, though single readings can be large or run the other way. No potency is given beside an inconclusive call; the fits are too rough.

Experiment: qHTS Assay for Rab9 Promoter Activators; note: nearly all actives have a fitted effect of over 60% in size
Conditions: Huh7 Rab9 promoter-luciferase reporter, luminescence, 24 h; series mostly up to 9.22 µM
How it was run: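 Huh7 reporter line, Rab9 promoter upstream of luciferase. Compound exposure 24 h at 37 °C in reduced-serum medium with 10% FBS. Read-out: luminescence.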
Potency is the fitted concentration of half-maximal effect; tags give direction and shape of the fitted curve.

Q: For `COc1ccccc1NC(=O)Nc1ccc(C(=O)N2CCCCC2)cc1`, which Potency is on record?
A: active: 0.891 µM

Q: For `CSc1nc2ncc(-c3ccsc3)c(N)n2n1`, which Potency is on record?
A: inconclusive [activator, partial curve]

Q: For `O=C1C(c2c(O)[nH]c3ccccc23)=Nc2ccccc21`, which Potency is on record?
A: inconclusive [activator, single point]

Q: With `Clc1nc2c(ccc3ccccc32)[nH]1` as the molecule, how does the Potency read?
A: inconclusive [activator, partial curve]

Q: With `O=C(CCc1nnc(-c2ccc(-c3ccccc3)cc2)o1)N1CCCCC1` as the molecule, how does the Potency read?
A: inconclusive [activator, partial curve]

Q: With `COc1ccc(C(=O)Nc2ccc(Cl)cn2)cc1Cl` as the molecule, how does the Potency read?
A: active: 3.55 µM

Q: For `Cc1cccc(NC(=O)c2ccc(OCc3c(C)noc3C)cc2)n1`, which Potency is on record?
A: inactive

Q: For `Cc1csc(NC(=O)c2ccoc2C)n1`, which Potency is on record?
A: inconclusive [activator, partial curve]

Q: For `CCOc1ccc(-c2nc(-c3cccs3)c(CC(=O)O)s2)cc1OC`, which Potency is on record?
A: inconclusive [activator, single point]

Q: With `O=C(NCc1ccc(F)cc1)c1cnn2ccccc12` as the molecule, how does the Potency read?
A: active: 2 µM

Q: For `COc1ccc(/C(C)=N/NC(=O)c2nc(C)cc(C)n2)cc1`, which Potency is on record?
A: inconclusive [activator, single point]

Q: Which Potency does the source give for `COC(=O)N/N=C1\CCCc2ccccc21` here?
A: inactive

Q: For `CC(=O)c1c(C)[nH]c(C(=O)OCC(=O)c2ccc(C)s2)c1C`, which Potency is on record?
A: inconclusive [activator, single point]

Q: With `O=C(Nc1cccc(-c2cn3c(n2)SCC3)c1)c1ccc(Br)o1` as the molecule, how does the Potency read?
A: inactive

Q: Which Potency does the source give for `Cn1c(SCc2ccccc2)nnc1-c1cccs1` here?
A: inconclusive [activator, partial curve]

Q: With `COc1cc(/C=N/OCC(=O)Nc2cc(C)cc(C)c2)ccc1OCc1ccc(Cl)cc1` as the molecule, how does the Potency read?
A: active: 3.16 µM

Q: With `O=C(CN1CCN(Cc2ccccc2)CC1)Nc1ccc(Br)cc1` as the molecule, how does the Potency read?
A: inactive

Q: Which Potency does the source give for `CCOC(=O)c1ccc(N/C=C\C(=O)c2cccc(OC)c2)cc1` here?
A: inconclusive [activator, single point]

Q: With `CCc1ccc2oc(-c3ccc(N)cc3)nc2c1` as the molecule, how does the Potency read?
A: active: 0.501 µM

Q: Which Potency does the source give for `COc1cccc(CNC(=O)Cn2c(=O)c3cccn3c3ccccc32)c1` here?
A: inactive

Q: Which Potency does the source give for `Cc1ccc(CNc2nc3ccccc3n2C)cc1` here?
A: active: 0.501 µM

Q: For `O=C(NC(=S)Nc1ccc(CN2CCOCC2)cc1)c1cccc(F)c1`, which Potency is on record?
A: inconclusive [activator, partial curve]

Q: With `O=C(CSc1nc2ccccc2[nH]1)Nc1ccc2c(c1)OCCO2` as the molecule, how does the Potency read?
A: inconclusive [activator, single point]

Q: With `O=c1c(Cl)c(N2CCN(c3ccc(F)cc3)CC2)cnn1-c1nc2ccccc2s1` as the molecule, how does the Potency read?
A: inconclusive [activator, single point]

Q: For `Cc1ccc(-n2c(C)c(C)c3c(NCCCO)ncnc32)cc1`, which Potency is on record?
A: active: 2.51 µM

Q: For `CC(C)(C)c1ccc(-c2nnc(SCC(=O)NC3CC3)o2)cc1`, which Potency is on record?
A: inconclusive [activator, partial curve]

Q: Which Potency does the source give for `Cc1ccc(NC(=O)N2CCOCC2)c(C)c1` here?
A: inconclusive [activator, single point]

Q: Which Potency does the source give for `O=C(Nc1ncc(Cc2ccccc2Cl)s1)C1CCCO1` (configuration not stated) here?
A: active: 1.41 µM

Q: With `Nc1ncnc2c1ncn2CCOc1ccccc1` as the molecule, how does the Potency read?
A: inactive

Q: Which Potency does the source give for `Cc1ccc(O)c(NC(=O)c2cc(-c3ccccc3Cl)on2)c1` here?
A: inconclusive [activator, single point]

Q: Which Potency does the source give for `CSc1ccc(/C=C/c2cc(=O)c3ccccc3[nH]2)cc1` here?
A: inconclusive [activator, single point]

Q: With `Cc1cccc2cc3c(N)c(C(=O)N4CCOCC4)sc3nc12` as the molecule, how does the Potency read?
A: active: 0.562 µM

Q: Which Potency does the source give for `CC1CCN(c2ccc(C(=O)NCc3cccs3)cn2)CC1` here?
A: inconclusive [activator, partial curve]

Q: Which Potency does the source give for `CCOC(=O)Nc1ccc2c(c1)N(C(=O)N1CCN(C)CC1)c1ccccc1CC2` here?
A: inactive

Q: Which Potency does the source give for `c1nc(Nc2ccc(N3CCOCC3)cc2)c2ccsc2n1` here?
A: inconclusive [activator, partial curve]

Q: For `Cc1ccc(Cn2nc(-c3ccccc3)nc2-c2ccccc2)cc1`, which Potency is on record?
A: active: 3.55 µM

Q: With `O=C(c1cc(COc2ccc(F)cc2Cl)on1)N1C[C@H]2CC[C@H]1C2` as the molecule, how does the Potency read?
A: active: 2.82 µM

Q: Which Potency does the source give for `Cc1cc(/C=C2/NC(=S)NC2=O)c(C)n1-c1cccnc1` here?
A: inconclusive [activator, single point]

Q: With `Fc1ccccc1-c1nc2ccccc2[nH]1` as the molecule, how does the Potency read?
A: active: 1.78 µM

Q: Which Potency does the source give for `Cc1cc(C)n(CCC(=O)N/N=C/c2ccccc2O)n1` here?
A: inactive

Q: With `CCN(CC(=O)Nc1c(F)cccc1F)C(=O)/C=C/c1ccc(C)cc1` as the molecule, how does the Potency read?
A: inconclusive [activator, partial curve]

Q: For `CCc1ccc(-c2cc3c(=O)n(CC(=O)NCc4ccccc4F)ncn3n2)cc1`, which Potency is on record?
A: inconclusive [activator, partial curve]

Q: For `O[C@@H]1COC(Nc2ccc(N=Nc3ccccc3)cc2)C[C@@H]1O` (some centres not stated), which Potency is on record?
A: active: 3.16 µM

Q: For `COC(=O)c1ccc(COc2cccc(C)c2C)cc1`, which Potency is on record?
A: inconclusive [activator, single point]

Q: With `O=C(Nc1ccc(C(F)(F)F)cc1)C1CCN(c2cnccn2)CC1` as the molecule, how does the Potency read?
A: inactive

Q: For `S=C(NCCc1ccccc1)Nc1ccccc1`, which Potency is on record?
A: inconclusive [activator, single point]

Q: For `COc1ccc(-c2csc(Nc3ccc(C)cn3)n2)cc1OC`, which Potency is on record?
A: inconclusive [activator, single point]

Q: With `CCOC(=O)N1CCN(C(=O)c2ccc3oc(CCCc4ccccc4)nc3c2)CC1` as the molecule, how does the Potency read?
A: active: 1.58 µM

Q: Which Potency does the source give for `Cc1c(CC(=O)O)c(=O)oc2cc(OCc3nn[nH]n3)ccc12` here?
A: inactive

Q: Which Potency does the source give for `Nc1cc(N)nc(SCc2cccc(F)c2)n1` here?
A: inconclusive [activator, single point]

Q: Which Potency does the source give for `COC(=O)c1c(NC(=O)c2ccn(C)n2)sc2c1CCC2` here?
A: inconclusive [activator, single point]

Q: For `Fc1ccc(-c2csc(-c3ccc(C4SCCS4)cc3)n2)cc1F`, which Potency is on record?
A: inconclusive [activator, single point]

Q: Which Potency does the source give for `COc1ccccc1-n1c(SCc2cc(=O)oc3cc(O)ccc23)nc2ccccc2c1=O` here?
A: inactive

Q: Which Potency does the source give for `Cc1cc(C(=O)CSc2n[nH]c(N)n2)c(C)n1-c1ccccc1` here?
A: inconclusive [activator, partial curve]

Q: For `NC(=O)c1c(NC(=O)c2cccs2)sc2c1CCCCCC2`, which Potency is on record?
A: active: 3.16 µM

Q: Which Potency does the source give for `CCN(CC)C(=O)Oc1ccc2c(c1)O/C(=C\c1ccco1)C2=O` here?
A: inconclusive [activator, partial curve]

Q: Which Potency does the source give for `COc1ccccc1C(=O)Nc1ccccn1` here?
A: inconclusive [activator, single point]

Q: For `COc1ccc2nc(NCc3cccnc3)sc2c1`, which Potency is on record?
A: inconclusive [activator, single point]

Q: With `CCCCN1CCC(n2c(=O)[nH]c3ccccc32)CC1` as the molecule, how does the Potency read?
A: inactive

Q: With `Cc1cccnc1NC(=O)c1sc2ccccc2c1Cl` as the molecule, how does the Potency read?
A: active: 2.51 µM

Q: For `COc1cccc(N2CCN(C(=O)c3ccc4nc(N5CCCCC5)sc4c3)CC2)c1`, which Potency is on record?
A: inconclusive [activator, full curve]

Q: With `O=C(c1cc(-c2ccc(Br)cc2)on1)N1CCOCC1` as the molecule, how does the Potency read?
A: active: 0.316 µM

Q: For `O=C(Cc1ccccc1)Nc1nnc(-c2cccs2)s1`, which Potency is on record?
A: inconclusive [activator, partial curve]

Q: Which Potency does the source give for `N/C(=N\OC(=O)c1cccc2ccccc12)c1cccc([N+](=O)[O-])c1` here?
A: inactive

Q: Which Potency does the source give for `O=C(CSc1nnc(NC(=O)Cc2ccccc2)s1)NCC1CCCO1` (configuration not stated) here?
A: inactive

Q: With `COC(=O)C1C(=O)c2c([nH]c(C(=O)OCCSC)c2C)CC1C` (configuration not stated) as the molecule, how does the Potency read?
A: inconclusive [activator, partial curve]

Q: Which Potency does the source give for `Cc1cc(C)cc(COc2ccc3c(C)c(CC(=O)O)c(=O)oc3c2C)c1` here?
A: inactive

Q: Which Potency does the source give for `Nc1nc(SCCO)[nH]c(=O)c1NC(=O)c1ccco1` here?
A: inconclusive [activator, single point]

Q: With `Cc1ccc(SCC(=O)c2ccc[nH]2)cc1` as the molecule, how does the Potency read?
A: inconclusive [activator, partial curve]

Q: Which Potency does the source give for `COc1ccc2cc3cc(C(=O)N4CCN(C5CCCCC5)CC4)oc3nc2c1` here?
A: inactive

Q: With `c1ccc(-n2ncc3c(NCCN4CCCCC4)ncnc32)cc1` as the molecule, how does the Potency read?
A: inconclusive [activator, single point]

Q: With `O=C(N/N=C/c1ccc(OC(=O)c2cccs2)cc1)c1ccccn1` as the molecule, how does the Potency read?
A: active: 3.16 µM

Q: Which Potency does the source give for `CCC1Sc2ccc(S(=O)(=O)CCC(=O)NCc3ccco3)cc2NC1=O` (configuration not stated) here?
A: inactive

Q: Which Potency does the source give for `O=C(N/N=C/c1cccs1)c1[nH]ncc1Br` here?
A: active: 3.98 µM

Q: Which Potency does the source give for `COc1cccc(C(=O)NCCn2ccc3ccccc32)c1` here?
A: active: 3.98 µM

Q: With `Nc1ccc2nc(NC(=O)C3CCCCC3)sc2c1` as the molecule, how does the Potency read?
A: active: 4.47 µM

Q: Which Potency does the source give for `Cn1cc(C(=O)Nc2ccccn2)c(=O)c2ccccc21` here?
A: inconclusive [activator, single point]

Q: Which Potency does the source give for `Cc1ccc(S(=O)(=O)N2CCCCC2)cc1NC(=O)COc1ccccc1F` here?
A: inactive

Q: Which Potency does the source give for `CCCCOc1cccc(C(=O)NNC(=S)NC2CCCCC2)c1` here?
A: inactive

Q: With `COc1cc(C(=O)NCc2ccccc2)cc(Br)c1OC` as the molecule, how does the Potency read?
A: inactive

Q: For `Cn1c(CCNC(=O)c2ccco2)nc2cc(NC(=O)c3ccco3)ccc21`, which Potency is on record?
A: inconclusive [activator, partial curve]

Q: Which Potency does the source give for `COc1cc(NC(=O)c2cccc(C)c2)ccc1NC(=O)c1cc2ccccc2o1` here?
A: inactive
